According to PubChem BioAssay AID504333 (National Center for Advancing Translational Sciences (NCATS), 2011):
Screen size: about 360,000 compounds; about 16,000 (4.4%) were called active. The shares of active, inactive and inconclusive entries below differ from those in the screen. The call rests on the fitted dose curve; in most records, active means well fitted inhibition curve with a large enough effect; inconclusive means small, poorly fitted or top-dose-only effect; inactive means no such curve, though single readings can be large or run the other way. A potency beside an inconclusive call is a rough fit, not a confirmed value.

The molecules below were run against Bromodomain adjacent to zinc finger domain protein 2B (Homo sapiens) (UniProt Q9UIF8) (assay: qHTS Assay for Inhibitors of BAZ2B). Details: AlphaScreen BAZ2B-H3K14Ac peptide displacement; series mostly up to 114 µM.
Outline: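 Protein-peptide AlphaScreen: BAZ2B 50 nM, b-H3K14Ac 50 nM, 1x PBS pH 7.4 + 0.01% Tween-20. Preincubation 30 min RT; cpd 30 min RT (top 110 uM); beads 20 min RT, light-protected.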
Further: nearly all actives have a fitted effect of over 60% in size.
Potency means the concentration at half of the fitted maximal effect; tags describe the fitted curve by direction and shape.

UniProt Q9UIF8, sequence (Q9UIF8 whole entry, looked up, the tested form may be a part): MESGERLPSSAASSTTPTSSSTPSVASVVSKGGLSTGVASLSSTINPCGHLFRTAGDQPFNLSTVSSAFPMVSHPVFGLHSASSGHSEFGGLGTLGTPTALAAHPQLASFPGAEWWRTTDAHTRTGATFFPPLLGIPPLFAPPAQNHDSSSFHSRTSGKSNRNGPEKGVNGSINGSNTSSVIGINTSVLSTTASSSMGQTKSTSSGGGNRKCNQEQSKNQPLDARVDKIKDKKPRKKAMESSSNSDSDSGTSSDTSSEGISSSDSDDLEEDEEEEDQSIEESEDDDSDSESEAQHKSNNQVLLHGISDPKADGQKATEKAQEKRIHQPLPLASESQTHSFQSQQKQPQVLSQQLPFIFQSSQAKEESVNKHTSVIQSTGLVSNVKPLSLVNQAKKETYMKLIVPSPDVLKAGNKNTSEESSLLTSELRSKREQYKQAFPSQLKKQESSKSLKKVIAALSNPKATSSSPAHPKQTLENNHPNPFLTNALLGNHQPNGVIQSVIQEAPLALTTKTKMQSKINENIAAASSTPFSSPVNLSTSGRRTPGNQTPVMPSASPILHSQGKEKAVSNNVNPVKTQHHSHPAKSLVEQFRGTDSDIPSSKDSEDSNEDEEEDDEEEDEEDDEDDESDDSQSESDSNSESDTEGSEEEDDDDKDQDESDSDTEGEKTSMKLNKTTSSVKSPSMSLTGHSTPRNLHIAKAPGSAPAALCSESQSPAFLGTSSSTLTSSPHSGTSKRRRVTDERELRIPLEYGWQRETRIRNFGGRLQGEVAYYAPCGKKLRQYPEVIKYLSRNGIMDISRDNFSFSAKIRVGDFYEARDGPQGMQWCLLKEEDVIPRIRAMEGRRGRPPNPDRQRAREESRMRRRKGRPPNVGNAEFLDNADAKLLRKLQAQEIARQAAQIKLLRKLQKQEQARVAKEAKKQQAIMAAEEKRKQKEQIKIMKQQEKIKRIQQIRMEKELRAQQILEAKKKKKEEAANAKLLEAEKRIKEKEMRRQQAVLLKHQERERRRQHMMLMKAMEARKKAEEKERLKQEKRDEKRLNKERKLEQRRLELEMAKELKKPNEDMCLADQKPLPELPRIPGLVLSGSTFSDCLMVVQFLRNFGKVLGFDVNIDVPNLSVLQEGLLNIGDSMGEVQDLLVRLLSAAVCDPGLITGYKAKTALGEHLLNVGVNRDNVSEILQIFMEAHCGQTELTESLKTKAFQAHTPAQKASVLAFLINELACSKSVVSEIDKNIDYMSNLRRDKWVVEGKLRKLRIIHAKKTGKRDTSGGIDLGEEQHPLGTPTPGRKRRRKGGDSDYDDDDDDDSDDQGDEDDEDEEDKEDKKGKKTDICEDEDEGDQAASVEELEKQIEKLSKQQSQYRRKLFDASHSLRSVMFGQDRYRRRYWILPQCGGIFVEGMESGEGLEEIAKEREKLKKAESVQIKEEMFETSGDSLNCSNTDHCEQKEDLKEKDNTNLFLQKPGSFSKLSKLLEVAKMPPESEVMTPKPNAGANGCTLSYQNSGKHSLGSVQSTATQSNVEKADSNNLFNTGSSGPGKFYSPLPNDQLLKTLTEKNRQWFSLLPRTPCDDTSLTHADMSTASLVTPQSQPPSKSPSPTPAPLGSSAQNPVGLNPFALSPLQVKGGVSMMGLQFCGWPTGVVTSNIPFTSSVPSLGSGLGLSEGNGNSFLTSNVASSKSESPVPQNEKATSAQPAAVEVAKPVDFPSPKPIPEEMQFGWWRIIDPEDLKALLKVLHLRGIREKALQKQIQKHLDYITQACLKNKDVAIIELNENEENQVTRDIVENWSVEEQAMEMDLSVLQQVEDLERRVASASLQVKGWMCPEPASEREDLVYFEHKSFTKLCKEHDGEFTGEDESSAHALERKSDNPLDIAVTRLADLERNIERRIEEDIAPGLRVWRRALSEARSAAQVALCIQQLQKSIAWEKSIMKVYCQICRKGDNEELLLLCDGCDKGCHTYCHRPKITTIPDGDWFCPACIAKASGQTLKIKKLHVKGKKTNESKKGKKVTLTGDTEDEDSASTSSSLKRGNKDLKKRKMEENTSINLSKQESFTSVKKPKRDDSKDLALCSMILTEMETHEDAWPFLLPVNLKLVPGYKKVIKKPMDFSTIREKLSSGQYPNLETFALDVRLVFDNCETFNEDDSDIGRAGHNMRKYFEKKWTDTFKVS

Row | Structure (SMILES) | Potency
1 | Cc1nc2ccc(NC(=O)c3cncc(Br)c3)cc2s1 | inconclusive: 100 µM [inhibitor, single point]
2 | Cc1nn(S(=O)(=O)c2ccc(Br)cc2)c(C)c1S(=O)(=O)N1CCOCC1 | inconclusive: 79.4 µM [inhibitor, single point]
3 | CCN(CCCNC(=O)c1ccc2c(c1)NC(=O)CN2C)c1cccc(C)c1 | active: 50.1 µM
4 | Cc1c(Cl)ccc2c(C(=O)O)cc(-c3ccccc3)nc12 | inconclusive: 0.708 µM [inhibitor, full curve, poor fit]
5 | O=C(Nc1cccnc1)c1cc(-c2cccnc2)nc2ccc(Br)cc12 | inconclusive: 70.8 µM [inhibitor, single point]
6 | Cc1ccc(C2=N/C(=C\N3CCCCC3)C(=O)O2)cc1 | inconclusive: 89.1 µM [inhibitor, single point]
7 | O=S(=O)(c1ccc(SCCO)nc1)N1CCOCC1 | inactive
8 | CCC(c1nnnn1C(C)(C)C)N(Cc1ccco1)Cc1cc2cccc(C)c2[nH]c1=O (stereo unspecified) | inconclusive: 44.7 µM [inhibitor, partial curve]
9 | O=C(Nc1nnc(-c2ccncc2)o1)c1ccc2ccccc2c1 | active: 79.4 µM
10 | Cc1ccc(NC(=O)CN2C(=O)S/C(=C/c3ccc(O)c([N+](=O)[O-])c3)C2=O)cc1C | active: 14.1 µM
11 | CCOc1ccc(/C=C2/SC(=S)N(CCC(=O)Nc3ccc(C(=O)O)cc3)C2=O)cc1 | active: 31.6 µM
12 | COc1ccc2[nH]c(C)c(CCNS(=O)(=O)c3cc(F)ccc3OC)c2c1 | inconclusive: 50.1 µM [inhibitor, partial curve]
13 | COc1ccc(/C(O)=C2\C(=O)C(=O)N(CCN(C)C)C2c2cccc(OC)c2OC)cc1 (stereo unspecified) | inactive
14 | O=C(N/N=C/c1c(O)n(-c2ccc(Cl)cn2)c(=O)c2ccccc12)c1ccncc1 | inconclusive: 63.1 µM [inhibitor, partial curve, poor fit]
15 | O=C(O)CCN=CC1=C(O)CC(c2ccccc2)CC1=O (stereo unspecified) | inactive
16 | COc1cccc2cc(-c3ccnc(=S)[nH]3)oc12 | inactive
17 | O=C(CCCOc1ccccc1)Nc1ccncc1 | inconclusive: 35.5 µM [inhibitor, single point]
18 | Cc1ccc2c(C)c(C(=O)N(Cc3ccc(Cl)cc3)C3CCS(=O)(=O)C3)oc2c1 (stereo unspecified) | inactive
19 | CCn1c(C2CCN(S(=O)(=O)c3ccc(OC)cc3)CC2)n[nH]c1=S | inactive
20 | O=C(CSc1nccn1-c1ccc(F)cc1)Nc1ccc(OC(F)(F)F)cc1 | inconclusive: 14.1 µM [inhibitor, partial curve]
21 | N#Cc1nc(Cc2ccccc2)oc1N1CCCC1 | inconclusive: 50.1 µM [inhibitor, partial curve]
22 | Cc1ccc2c(N)c(C)ccc2c1 | inconclusive: 44.7 µM [inhibitor, partial curve]
23 | CCc1ccc(C2c3[nH]c4ccccc4c3CCN2C(=O)c2ccc(=O)n(C)n2)cc1 (stereo unspecified) | inconclusive: 14.1 µM [inhibitor, full curve, poor fit]
24 | Cc1cc(OCc2cc(C(=O)N(C)Cc3ccccn3)no2)cc(C)c1Cl | inconclusive: 79.4 µM [inhibitor, single point]

Row | Structure (SMILES) | Potency
25 | COc1ccc2c(c1)-c1nc(/N=C/c3c(O)ccc4ccccc34)sc1CC2 | inconclusive: 50.1 µM [inhibitor, partial curve]
26 | Cc1cc(NC(=O)CSc2nnc(-c3cccnc3)n2N)no1 | inconclusive: 89.1 µM [inhibitor, single point]
27 | CCC(C)NC(=S)N1CCN(C(c2ccccc2)c2ccccc2)CC1 (stereo unspecified) | inactive
28 | CN(C)c1ccc(C(CNS(=O)(=O)c2ccccc2)N2CCc3ccccc32)cc1 (stereo unspecified) | active: 22.4 µM
29 | O=C(O)c1cc2nccc(-c3ccc(F)cc3)n2n1 | inconclusive: 89.1 µM [inhibitor, single point]
30 | CCOc1ccc(S(=O)(=O)Nc2cccc(C(=O)N3CCN(c4ccccc4O)CC3)c2)cc1 | inactive
31 | CCOC(=O)c1cc2occc2n1CC(=O)Nc1ccc(OC)cc1OC | inconclusive: 44.7 µM [inhibitor, partial curve]
32 | COc1ccc(NC2CCCCC2NS(=O)(=O)c2ccc(C)cc2)cc1 (stereo unspecified) | active: 50.1 µM
33 | O=C(O)CC(NCc1ccco1)C(=O)OCCCl (stereo unspecified) | inconclusive: 56.2 µM [inhibitor, partial curve]
34 | Cc1ccccc1Cn1c(=O)n(Cc2ccc(Cl)cc2)c(=O)c2cccnc21 | inactive
35 | CCCC/C(O)=C1\C(=O)CCCC1=NCCc1c(C)[nH]c2ccccc12 | inconclusive: 44.7 µM [inhibitor, partial curve]
36 | Cc1cc(-c2n[nH]c(=S)n2/N=C/c2sccc2C)n[nH]1 | inconclusive: 89.1 µM [inhibitor, single point]
37 | CC(=O)/C(C#N)=C1\NC(=O)C(Cc2ccc(F)cc2)S1 (stereo unspecified) | inconclusive: 89.1 µM [inhibitor, single point]
38 | C=CCn1c(=O)c(C(=O)Nc2ncccc2O)c(O)c2ccccc21 | inconclusive: 79.4 µM [inhibitor, single point]
39 | O=S(=O)(c1cccc2nonc12)N1CCN(c2ccc(F)cc2)CC1 | inconclusive: 44.7 µM [inhibitor, partial curve]
40 | Cc1ccc(-n2c(O)c(C=Nc3ccccc3-c3n[nH]c(=S)[nH]c3=O)c3ccccc3c2=O)c(C)c1 | active: 39.8 µM
41 | O=C(NCCc1ccccc1)/C(=C/c1ccco1)c1ccccc1 | inconclusive: 89.1 µM [inhibitor, single point]
42 | COc1ccc(Br)cc1/C=N/N1CCN(Cc2ccccc2Cl)CC1 | inconclusive: 50.1 µM [inhibitor, partial curve, poor fit]
43 | O=[N+]([O-])c1cc(-c2ccc(C(=S)N3CCOCC3)o2)ccc1Cl | active: 31.6 µM
44 | CC(C)CN1CCc2nc(N3CCN(C)CC3)ncc2C1 | inconclusive: 89.1 µM [inhibitor, single point]
45 | C/C(=N\NC(=O)COc1ccc(C(C)(C)C)cc1)c1cc2ccccc2o1 | inconclusive: 89.1 µM [inhibitor, single point]
46 | Cc1cccc(C(CC(=O)NCc2ccco2)c2ccccc2)c1O (stereo unspecified) | inconclusive: 70.8 µM [inhibitor, single point]
47 | Cc1ccc(C(=O)C[n+]2ccc3ccccc3c2)cc1 | inactive
48 | O=C(Nc1ccc(-c2csc(Nc3cccc(C(F)(F)F)c3)n2)cc1)c1ccccc1 | inconclusive: 79.4 µM [inhibitor, single point]

Row | Structure (SMILES) | Potency
49 | COc1ccc(-n2c(SCc3ccc([N+](=O)[O-])cc3)nnc2-c2ccccc2)cc1 | inconclusive: 39.8 µM [inhibitor, partial curve]
50 | NC1=NC(=O)/C(=C\c2ccc(O)c([N+](=O)[O-])c2)S1 | inactive
51 | CNc1ccc(Br)cc(C(=O)/C=C/c2ccc3c(c2)OCO3)c1=O | active: 39.8 µM
52 | O=c1c2ccccc2nc2ccc(NCc3ccco3)nn12 | inconclusive: 50.1 µM [inhibitor, partial curve]
53 | CCOC(=O)c1c(S(=O)(=O)N2CCCC(C(=O)N3CCN(c4cccc(C)c4C)CC3)C2)c(C)n(C)c1C (stereo unspecified) | inconclusive: 39.8 µM [inhibitor, partial curve]
54 | Cc1ccc(N2CC(C(=O)Nc3ccc(N(C)C)cc3)CC2=O)cc1C (stereo unspecified) | inconclusive: 89.1 µM [inhibitor, single point]
55 | COc1cccc(CNCC(=O)N2C(C)CCCC2C)c1 (stereo unspecified) | active: 50.1 µM
56 | Cc1ccnc(NC(=O)CNC(=O)c2ccc(C)s2)c1 | inconclusive: 89.1 µM [inhibitor, single point]
57 | COc1cc(C2NC(=S)NC(c3ccccc3)=C2C(C)=O)cc(Br)c1OCC(N)=O (stereo unspecified) | inactive
58 | COc1cc(OC)cc(C(=O)NC(=S)Nc2ccc(N3CCCC3)cc2)c1 | inconclusive: 7.94 µM [inhibitor, full curve, poor fit]
59 | O=C(N/N=C/c1ccc[nH]1)c1cc2ccccc2cc1O | active: 39.8 µM
60 | Cc1ccc(N2C(=O)[C@@H]3[C@H](C2=O)C2c4ccccc4C=CN2[C@@H]3C(=O)c2ccco2)cc1 (stereo partly specified) | inconclusive: 79.4 µM [inhibitor, single point]
61 | CC(C)(C)c1ccc(C(CC(=O)O)NC(=O)Cc2ccccc2)cc1 (stereo unspecified) | inactive
62 | O=C(O)C1=NN(c2ccccc2)C(=O)CC1 | inconclusive: 89.1 µM [inhibitor, single point]
63 | N#C/C(=C\c1cccc([N+](=O)[O-])c1)c1nnc2n1CCCCC2 | inactive
64 | Cc1[nH]n(-c2ccccc2)c(=O)c1N=Nc1cccc(S(=O)(=O)N2CCOCC2)c1 | inactive
65 | Cc1ccc(C(=O)O)cc1Nc1nc2ccccc2n2nnnc12 | inconclusive: 70.8 µM [inhibitor, single point]
66 | CCc1ccc(OC2=NS(=O)(=O)c3ccccc32)cc1 | inconclusive: 89.1 µM [inhibitor, single point]
67 | Cc1cc2c(cc1C)/C(=N/NC(=O)c1ccccn1)CCC2 | active: 50.1 µM
68 | Cc1ccc(CNC(=O)C2CCN(c3nc4ccccc4n(C)c3=O)CC2)cc1 | inactive
69 | Cn1cc(S(=O)(=O)N2CCCCCC2)cc1C(=O)N1CCN(c2cccc(Cl)c2)CC1 | inconclusive: 28.2 µM [inhibitor, full curve]
70 | COc1cc(CCC(=O)Nc2c(C(=O)N3CCN(c4ccccc4OC)CC3)oc3ccccc23)on1 | inconclusive: 70.8 µM [inhibitor, single point]
71 | O=c1c(Cc2c(F)cccc2Cl)c(O)ccn1C1CCCCCC1 | inconclusive: 89.1 µM [inhibitor, partial curve]
